{"source": "PubChem BioAssay (Tox21)", "note": "Several values for one entry are separate records, joined by “and”; a condition that tells them apart may be missing. Equal values may be shown once. Inconclusive results, whose numbers are uncertain, are shown with a selection of clear calls. A potency beside an inconclusive call is a rough fit, not a confirmed value. Some compounds were tested as several samples or in several runs, with calls that do not always agree. Activity calls are given as the source filed them. Calls come from the whole dose curve; as a rule, active = well fitted inhibition curve with a large enough effect in the repeat runs; inconclusive = weak or mixed curves; inactive = no such curve, though single readings can be large or run the other way. Potency is the fitted concentration of half-maximal effect; tags give direction and shape of the fitted curve."}
{"molecular_target": "Cytochrome P450 1A2 (Homo sapiens) (UniProt P05177)", "sequence (P05177 whole entry, looked up)": "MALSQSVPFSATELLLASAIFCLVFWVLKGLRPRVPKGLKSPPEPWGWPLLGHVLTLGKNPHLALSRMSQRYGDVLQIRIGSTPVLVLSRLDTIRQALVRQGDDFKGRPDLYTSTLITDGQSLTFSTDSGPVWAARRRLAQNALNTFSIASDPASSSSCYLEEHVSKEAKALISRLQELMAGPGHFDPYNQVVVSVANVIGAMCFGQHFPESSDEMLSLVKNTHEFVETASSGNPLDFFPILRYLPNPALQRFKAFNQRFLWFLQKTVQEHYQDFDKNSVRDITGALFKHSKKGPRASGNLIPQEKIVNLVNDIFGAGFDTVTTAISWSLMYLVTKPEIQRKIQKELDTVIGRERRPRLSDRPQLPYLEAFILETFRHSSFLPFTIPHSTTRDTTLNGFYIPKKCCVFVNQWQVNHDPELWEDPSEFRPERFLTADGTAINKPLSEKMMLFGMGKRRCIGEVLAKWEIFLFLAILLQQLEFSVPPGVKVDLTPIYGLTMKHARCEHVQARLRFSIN", "test": "Cytochrome P450 Family 1 Subfamily A Member 2 (CYP1A2) small molecule antagonists: luciferase reporter qHTS assay (AID 1671199); note: nearly all actives have a fitted effect of over 50% in size", "conditions": "P450-Glo CYP1A2 enzyme, luciferin luminescence, 1 h; series mostly up to 115 µM", "summary_of_the_method": "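Steps: enzyme-substrate mix dispensed; test compounds and furafylline control pinned in; 10 min room temperature; NADPH regeneration solution added, 1 h; reaction stopped with luciferin detection reagent; luminescence read after 20 min.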"}
{"smiles": "CCN=c1cc2oc3cc(NCC)c(C)cc3c(-c3ccccc3C(=O)OCC)c-2cc1C", "Potency": "inconclusive: 63.1 µM [inhibitor, partial curve]"}
{"smiles": "CC(O)C(=O)O", "note": "(stereo unspecified)", "Potency": "inconclusive: 55.5 µM [inhibitor, partial curve, poor fit]"}
{"smiles": "CCCCNS(=O)(=O)c1ccccc1", "Potency": "inconclusive: 35.1 µM [inhibitor, partial curve] and inactive"}
{"smiles": "CCN(CC)c1ccc2c(C)cc(=O)oc2c1", "Potency": "active: 2.02 µM and active: 2.83 µM"}
{"smiles": "O=C(CCCCCCCCc1cccnc1)N1CCC(C=C(c2ccccc2)c2ccccc2)CC1", "Potency": "inconclusive: 39.9 µM [inhibitor, partial curve]"}
{"smiles": "CN(C)c1ccc(C(=C2C=CC(=[N+](C)C)C=C2)c2ccccc2)cc1", "Potency": "active: 15.9 µM and inconclusive: 32.3 µM [inhibitor, partial curve] and active: 13.8 µM"}
{"smiles": "CN(C)C(=O)C1(N2CCCCC2)CCN(CC[C@@]2(c3ccc(Cl)c(Cl)c3)CN(C(=O)c3ccccc3)CCO2)CC1", "Potency": "inactive"}
{"smiles": "OCCO", "Potency": "inactive"}
{"smiles": "S=P(N1CC1)(N1CC1)N1CC1", "Potency": "active: 57.7 µM"}
{"smiles": "C[C@@H](NCCCc1cccc(C(F)(F)F)c1)c1cccc2ccccc12", "Potency": "inconclusive: 32.3 µM [inhibitor, partial curve]"}
{"smiles": "COC(=O)[C@]1(C)CCC[C@@]2(C)[C@H]1CC=C1C=C(C(C)C)CC[C@@H]12", "Potency": "inconclusive: 39.9 µM [inhibitor, partial curve]"}
